Measurements from a collection of fitness landscapes (doi:10.1016/j.celrep.2020.107928).
Over roughly 81,000 sequences, “one-hybrid fitness for binding parS DNA” has its median near -0.17; the highest 2% begin near 0.51. This is one part of the list.

B1: Caulobacter ParB omega fusion; a variant is named by its letters at X, in order, B8GW30 (parent)
chain: MESVVVGEPGMSEGRRGLGRGLSALLGEVDAAPAQAPGEQLGGSREAPIEILQRNPDQPRRTFREEDLEDLSNSIREKGVLQPILVRPSPDTAGEYQIVAGERAWRAAQRAGLKTVPIMVRELDDLAVLEIGIIENVQRADLNVLEEALSYKVLMEKFERTQENIAQTIGKSXSHVANXMRLLXLPDEVQSYLVSGELTAXHARAIAAAADPVALAKQIIEGGLSVRETEALARKAPNLSAGKSKGGRPPRVKDTDTQALESDLSSVLGLDVSIDHRGSTGTLTITYATLEQLDDLCNRLTRGI

Variants of: B1
Assay: one-hybrid fitness for binding parS DNA (scaled: cognate 1, non-cognate 0); higher = stronger binding
Conditions: with parS DNA site
Method in brief: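 Fitness is the rescaled log change in variant-to-wild-type read ratio, measured by Illumina sequencing of plasmids before and after bacterial one-hybrid selection. The scale puts cognate at 1 and non-cognate at 0. Selection of Caulobacter ParB libraries, four specificity codons randomised, took place in E. coli USO with a HIS3 reporter, site 19 bp from the promoter, over 48 hours at 37°C on M9-minus-histidine with 0.1 mM IPTG and 5 mM 3-AT.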

Row | Variant | one-hybrid fitness for binding parS DNA
1 | TRWG | ≤ 0.2
2 | HKRP | ≤ 0.2
3 | FMGT | ≤ 0.2
4 | RHCE | ≤ 0.2
5 | LYQC | ≤ 0.2
6 | KRYW | ≤ 0.2
7 | CKVS | ≤ 0.2
8 | CLYT | ≤ 0.2
9 | YFCV | ≤ 0.2
10 | NRDG | ≤ 0.2
11 | KQWT | ≤ 0.2
12 | LWWG | ≤ 0.2
13 | YTDG | ≤ 0.2
14 | RSYF | 0.233
15 | SVAP | ≤ 0.2
16 | GMCY | 0.307
17 | KPLC | ≤ 0.2
18 | FAKL | ≤ 0.2
19 | MAAA | ≤ 0.2
20 | TNNG | ≤ 0.2
21 | IFPP | ≤ 0.2
22 | RIAW | ≤ 0.2
23 | RWCA | 0.317
24 | PTTQ | ≤ 0.2
25 | WLPS | ≤ 0.2
26 | PMTC | ≤ 0.2

Row | Variant | one-hybrid fitness for binding parS DNA
27 | NTGW | ≤ 0.2
28 | GRRY | ≤ 0.2
29 | KHNV | ≤ 0.2
30 | QTTI | ≤ 0.2
31 | HSTY | ≤ 0.2
32 | FTLS | ≤ 0.2
33 | SWSK | ≤ 0.2
34 | AIKT | ≤ 0.2
35 | QARV | ≤ 0.2
36 | RAKI | ≤ 0.2
37 | SSCL | ≤ 0.2
38 | APMV | ≤ 0.2
39 | QRFE | ≤ 0.2
40 | QMQT | ≤ 0.2
41 | SQCT | ≤ 0.2
42 | HCAT | ≤ 0.2
43 | NQLM | ≤ 0.2
44 | LHRR | ≤ 0.2
45 | DKKM | ≤ 0.2
46 | MQLC | ≤ 0.2
47 | HCRC | ≤ 0.2
48 | LKWF | 0.268
49 | NDRA | ≤ 0.2
50 | RQPL | ≤ 0.2
51 | NVTR | ≤ 0.2
52 | QRYF | ≤ 0.2

Row | Variant | one-hybrid fitness for binding parS DNA
53 | YLNN | ≤ 0.2
54 | PIMV | ≤ 0.2
55 | SPLQ | ≤ 0.2
56 | LLPP | ≤ 0.2
57 | VLRI | ≤ 0.2
58 | TIVL | ≤ 0.2
59 | YLKC | ≤ 0.2
60 | AAYH | ≤ 0.2
61 | KSRL | ≤ 0.2
62 | APTN | ≤ 0.2
63 | HMKN | ≤ 0.2
64 | AGIG | ≤ 0.2
65 | EDQR | ≤ 0.2
66 | PKPW | ≤ 0.2
67 | ENER | ≤ 0.2
68 | DAMS | ≤ 0.2
69 | VQVL | ≤ 0.2
70 | PGPG | ≤ 0.2
71 | RDNL | ≤ 0.2
72 | KQNL | ≤ 0.2
73 | ICGA | ≤ 0.2
74 | GKQG | ≤ 0.2
75 | PVVS | ≤ 0.2
76 | QGRD | ≤ 0.2
77 | TVHG | ≤ 0.2
78 | AHWW | ≤ 0.2

Row | Variant | one-hybrid fitness for binding parS DNA
79 | PIRC | ≤ 0.2
80 | PYYL | ≤ 0.2
81 | LARA | ≤ 0.2
82 | CFFG | ≤ 0.2
83 | FHMS | ≤ 0.2
84 | NRWS | ≤ 0.2
85 | ISII | ≤ 0.2
86 | RNEH | ≤ 0.2
87 | TPKV | ≤ 0.2
88 | DIDV | ≤ 0.2
89 | RVWE | ≤ 0.2
90 | KYAF | ≤ 0.2
91 | CLES | ≤ 0.2
92 | TWDR | ≤ 0.2
93 | PSLH | ≤ 0.2
94 | LREI | ≤ 0.2
95 | RHSV | ≤ 0.2
96 | PVNT | ≤ 0.2
97 | CGAL | ≤ 0.2
98 | KYGG | ≤ 0.2
99 | SSYR | ≤ 0.2
100 | MYIP | ≤ 0.2
101 | SPPC | ≤ 0.2
102 | NIQG | ≤ 0.2
103 | HLKC | ≤ 0.2
104 | QYTE | ≤ 0.2

Row | Variant | one-hybrid fitness for binding parS DNA
105 | TRLA | ≤ 0.2
106 | TAAH | ≤ 0.2
107 | TITT | ≤ 0.2
108 | LWPL | ≤ 0.2
109 | FFPR | ≤ 0.2
110 | NNYQ | 0.211
111 | RWLE | ≤ 0.2
112 | QRMF | ≤ 0.2
113 | SSNK | ≤ 0.2
114 | ADRM | ≤ 0.2
115 | VMLI | ≤ 0.2
116 | RIVT | 0.788
117 | NVYN | ≤ 0.2
118 | NTYV | ≤ 0.2
119 | CPYA | ≤ 0.2
120 | LGGS | ≤ 0.2
121 | MLTV | ≤ 0.2
122 | KHVG | ≤ 0.2
123 | KCHT | ≤ 0.2
124 | HWLR | ≤ 0.2
125 | RFNY | 0.444
126 | KKLP | ≤ 0.2
127 | MTCP | ≤ 0.2
128 | YYAG | ≤ 0.2
129 | AMGL | ≤ 0.2
130 | CVWT | ≤ 0.2

Row | Variant | one-hybrid fitness for binding parS DNA
131 | AASQ | ≤ 0.2
132 | YLAG | ≤ 0.2
133 | KSDG | ≤ 0.2
134 | DRFC | ≤ 0.2
135 | MIQG | ≤ 0.2
136 | DRNV | ≤ 0.2
137 | DASD | ≤ 0.2
138 | KRLR | ≤ 0.2
139 | KEKS | ≤ 0.2
140 | CAAV | ≤ 0.2
141 | KKTR | ≤ 0.2
142 | NFAT | ≤ 0.2
143 | TYEY | ≤ 0.2
144 | TCLL | ≤ 0.2
145 | RQFS | 0.957
146 | REIG | ≤ 0.2
147 | YPAH | ≤ 0.2
148 | NTTP | ≤ 0.2
149 | EMNG | ≤ 0.2
150 | NPAL | ≤ 0.2
151 | SYGS | ≤ 0.2
152 | HLNL | ≤ 0.2
153 | FGHS | ≤ 0.2
